About 5,700 (2.6%) of roughly 220,000 compounds were called active. Inconclusive means that the source gave no clear call. Such entries were picked first, then a sample of the others. The call rests on the fitted dose curve; in most records, active means well fitted inhibition curve with a large enough effect; inconclusive means small, poorly fitted or top-dose-only effect; inactive means no such curve, though single readings can be large or run the other way. A potency beside an inconclusive call is a rough fit, not a confirmed value.
Target: Lysine-specific demethylase 5B (Homo sapiens) (UniProt Q9UGL1)
Chain of UniProt Q9UGL1 (Q9UGL1 whole entry, looked up): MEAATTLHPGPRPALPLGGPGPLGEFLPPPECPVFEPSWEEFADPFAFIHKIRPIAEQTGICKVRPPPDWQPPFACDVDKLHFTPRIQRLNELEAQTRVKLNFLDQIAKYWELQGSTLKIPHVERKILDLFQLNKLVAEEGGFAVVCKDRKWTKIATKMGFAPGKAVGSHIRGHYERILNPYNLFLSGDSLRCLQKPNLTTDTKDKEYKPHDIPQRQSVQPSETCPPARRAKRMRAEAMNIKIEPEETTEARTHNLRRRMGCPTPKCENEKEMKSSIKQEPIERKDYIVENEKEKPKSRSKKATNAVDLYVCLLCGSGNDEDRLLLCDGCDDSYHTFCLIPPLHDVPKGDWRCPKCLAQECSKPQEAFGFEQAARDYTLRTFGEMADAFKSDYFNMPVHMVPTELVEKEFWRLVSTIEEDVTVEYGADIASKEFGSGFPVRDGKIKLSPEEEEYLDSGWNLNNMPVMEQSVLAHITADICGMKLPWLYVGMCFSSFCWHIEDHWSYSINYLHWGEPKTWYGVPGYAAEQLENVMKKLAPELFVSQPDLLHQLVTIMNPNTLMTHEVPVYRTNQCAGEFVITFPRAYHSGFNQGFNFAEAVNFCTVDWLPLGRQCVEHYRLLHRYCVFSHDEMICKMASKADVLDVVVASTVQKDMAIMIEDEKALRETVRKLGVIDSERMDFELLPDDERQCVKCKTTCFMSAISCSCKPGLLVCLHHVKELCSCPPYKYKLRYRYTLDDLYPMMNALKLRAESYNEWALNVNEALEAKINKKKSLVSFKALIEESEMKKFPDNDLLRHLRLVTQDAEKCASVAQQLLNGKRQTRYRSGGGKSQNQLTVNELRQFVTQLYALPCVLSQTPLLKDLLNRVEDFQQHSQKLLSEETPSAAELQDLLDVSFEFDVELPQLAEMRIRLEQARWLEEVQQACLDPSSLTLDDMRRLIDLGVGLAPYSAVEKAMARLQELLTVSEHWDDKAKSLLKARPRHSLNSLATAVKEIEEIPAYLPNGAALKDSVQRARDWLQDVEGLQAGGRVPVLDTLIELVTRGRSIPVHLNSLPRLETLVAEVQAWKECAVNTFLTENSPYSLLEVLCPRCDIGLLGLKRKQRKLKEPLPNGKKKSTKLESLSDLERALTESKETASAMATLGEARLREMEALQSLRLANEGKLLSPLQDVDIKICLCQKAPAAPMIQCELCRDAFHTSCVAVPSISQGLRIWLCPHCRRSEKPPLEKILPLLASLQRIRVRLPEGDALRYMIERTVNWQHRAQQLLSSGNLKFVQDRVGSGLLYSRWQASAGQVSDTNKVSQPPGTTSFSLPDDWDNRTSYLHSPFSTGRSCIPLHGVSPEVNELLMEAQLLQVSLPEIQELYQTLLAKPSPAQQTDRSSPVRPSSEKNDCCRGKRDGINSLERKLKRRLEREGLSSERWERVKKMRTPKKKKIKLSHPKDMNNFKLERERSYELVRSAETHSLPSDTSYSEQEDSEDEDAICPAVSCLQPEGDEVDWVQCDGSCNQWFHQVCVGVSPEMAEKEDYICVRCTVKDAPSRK
Experiment: Primary screen for KDM5B Histone Demethylases FDH-coupled qHTS; further: nearly all actives have a fitted effect of over 70% in size; on activity change, negative = inhibition: 0% is about no effect
Settings: FDH-coupled NADH fluorescence (FDH is formaldehyde dehydrogenase); activity change, negative = inhibition: at 57.7 µM (top of the series) unless noted
Method in brief: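 Here, H3K4me3 peptide (12.5 µM in substrate mix) is demethylated by KDM5BΔAP, 200 nM final, after 10 min compound exposure. Formaldehyde product is coupled through FDH (0.25 U/mL in mix) to NADH fluorescence; 30-min ΔRFU feeds dose-response curves.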
Potency means the concentration at half of the fitted maximal effect; tags describe the fitted curve by direction and shape.

Which “activity change, negative = inhibition” value does the source give for O=C1COc2ccc(-c3cncnc3)nc2CN1Cc1ccc(F)cc1 here?
Its value is inactive: -30.4% [at 86.2 µM].

C=CCN1CC(C(=O)NCc2cccnc2Oc2ccc(C)nc2)CC1=O (centres undefined) was tested. Which Potency did it give?
Its Potency is inconclusive: 3.55 µM [inhibitor, single point].

Which “activity change, negative = inhibition” value does the source give for CCOC(=O)c1ccoc1CN(CC)CC here?
Its value is inactive: 21.1%.

How did the Potency turn out when O=C(c1ccc(-c2ncc3cnc(-c4ccccc4)cn23)cc1)N1CCc2cccnc21 was run?
Its Potency is active: 31.6 µM.

With O=C(NCc1ccccn1)C1CC(=O)N(c2n[nH]c3cccc(F)c23)C1 (centres undefined) as the compound, how does the “activity change, negative = inhibition” value read?
Its value is inactive: -7.05%.

How did the “activity change, negative = inhibition” value turn out when COCCn1cnnc1SCC(=O)c1c[nH]c2ccccc12 was run?
Its value is inactive: 16.1%.

How did the “activity change, negative = inhibition” value turn out when O=C(CN1CCN(c2nccs2)CC1)NCc1ccccc1F was run?
The value was inactive: 5.57%.

Cc1ccc(C(=O)N(C)C)cc1NC(=O)CC1CC2CCC1C2 (centres undefined) was tested. Which “activity change, negative = inhibition” value did it give?
Its value is inactive: -0.891%.

Which Potency does the source give for CCOC(=O)c1sc2cccc(F)c2c1S(=O)(=O)N1CCN(c2cccc(Cl)c2)CC1 here?
The Potency was inconclusive: 14.1 µM [inhibitor, partial curve, poor fit].

How did the Potency turn out when CC(C)C(=O)Nc1ccc2oc(-c3ccc(F)cc3)nc2c1 was run?
Its Potency is inconclusive: 28.2 µM [inhibitor, single point].

With CCCn1c2ccccc2c2cnn(CC(=O)N3CCC(C)CC3)c(=O)c21 as the compound, how does the Potency read?
Its Potency is inconclusive: 15.8 µM [inhibitor, partial curve, poor fit].

How did the Potency turn out when CCOc1cccc(-c2nc(C(=O)Nc3ccc(F)cc3)cs2)c1 was run?
The Potency was inconclusive: 22.4 µM [inhibitor, single point].

Which “activity change, negative = inhibition” value does the source give for C#CCNC(=O)[C@H]1O[C@H](CCN2CCN(c3ccccc3)CC2)CC[C@@H]1O here?
Its value is inactive: -9.22% [at 86.2 µM].

Which Potency does the source give for CC(C)Oc1cccc(-c2cc(C(=O)N3CCN(c4ncccn4)CC3)c3ccccc3n2)c1 here?
The Potency was inconclusive: 25.1 µM [inhibitor, single point].

With CSc1ccc(CNC(=O)C2CCN(c3cc(C(F)(F)F)nc(C)n3)CC2)cc1 as the compound, how does the Potency read?
The Potency was inconclusive: 28.2 µM [inhibitor, single point].

With O/N=C/c1ccc(-n2ccnc2)cc1 as the compound, how does the “activity change, negative = inhibition” value read?
The value was inactive: -13.1%.

Which “activity change, negative = inhibition” value does the source give for CCCCn1nnc(NC(=O)COc2cccc(C)c2)n1 here?
The value was inactive: -5.18%.

For CSc1ccc2cc(CN(C)CCO)c(-c3ccc(Cl)cc3)nc2c1, which Potency is on record?
Its Potency is active: 28.2 µM.

How did the “activity change, negative = inhibition” value turn out when CCc1ccccc1NCC(=O)Nc1ccc(C#N)cc1 was run?
The value was inactive: 14.9%.

With CCCc1noc(-c2cccn3c(CNC(=O)c4cccc(Cl)c4)nnc23)n1 as the compound, how does the Potency read?
The Potency was inconclusive: 20 µM [inhibitor, partial curve, poor fit].

O=C(CCCOC(=O)c1c(Cl)ccc(Cl)c1Cl)c1ccc(Br)cc1 was tested. Which “activity change, negative = inhibition” value did it give?
The value was inactive: 20.6%.

CC(C)OCCCNC(=O)c1cc2c(-c3ccc(Cl)cc3)nn(C)c2s1 was tested. Which Potency did it give?
Its Potency is inconclusive: 35.5 µM [inhibitor, partial curve, poor fit].

How did the “activity change, negative = inhibition” value turn out when Cc1cccc(C(C)C)c1NC(=O)c1ccc2c(c1)CCC2 was run?
Its value is inactive: 6.04%.

COc1ccc(-c2ccnc3nc(-c4ccccc4OC)nn23)cc1OC was tested. Which Potency did it give?
Its Potency is active: 28.2 µM.

How did the Potency turn out when Cc1ccc(N2CCN(c3ncncc3-c3nc(-c4ccccc4)no3)CC2)cc1 was run?
The Potency was inconclusive: 14.1 µM [inhibitor, partial curve].

Which Potency does the source give for CCCn1ccc2oc(C)c(C(=O)NCc3ccccc3)c2c1=O here?
Its Potency is inconclusive: 11.2 µM [inhibitor, partial curve, poor fit].

How did the Potency turn out when CN1CC(=O)N(C2CCCNC2)Cc2c1ncnc2N1CCCC(O)C1 (centres undefined) was run?
Its Potency is inconclusive: 39.8 µM [inhibitor, partial curve].

How did the “activity change, negative = inhibition” value turn out when O=C(NCCCNC(=O)c1ccccc1F)c1cc2ccccc2[nH]1 was run?
The value was inactive: -23.2%.

Which “activity change, negative = inhibition” value does the source give for CCC(C)NC(=O)Cn1ncc2c([nH]c3ccc(C)cc32)c1=O (centres undefined) here?
Its value is inactive: -2.36%.

Which Potency does the source give for CCc1cccc(NC(=O)Cn2nc(-c3ccc(OC)cc3)ccc2=O)c1 here?
Its Potency is inconclusive: 35.5 µM [inhibitor, partial curve, poor fit].

Which “activity change, negative = inhibition” value does the source give for CCC(C)(C)NC(=O)Cc1csc(-c2ccccc2)n1 here?
Its value is inactive: 5.12%.

For Cc1cccc(C)c1Nc1sc(C(=O)c2ccccc2)c(N)c1C(=O)Nc1ccc(F)cc1, which Potency is on record?
The Potency was inconclusive: 35.5 µM [inhibitor, single point].

With O=S(=O)(c1ccccc1)c1nnn2c1nc(N1CCCCC1)c1ccccc12 as the compound, how does the Potency read?
The Potency was inconclusive: 50.1 µM [inhibitor, partial curve, poor fit].

With O=C(NCc1ccc2c(c1)OCO2)C(=O)NCC(c1ccco1)N1CCN(c2ccccc2)CC1 (centres undefined) as the compound, how does the “activity change, negative = inhibition” value read?
Its value is inactive: 24%.

CN(C)C[C@@H]1CN(c2ccncn2)C[C@H]1NC(=O)c1cnco1 was tested. Which Potency did it give?
Its Potency is inconclusive: 22.4 µM [inhibitor, single point].

With CCN1CCNC(=O)C1CC(=O)N1CCn2nc(Cc3ccccc3)cc2C1 (centres undefined) as the compound, how does the Potency read?
The Potency was inconclusive: 17.8 µM [inhibitor, partial curve, poor fit].

For CCCCOc1cccc(C(=O)Nc2ccc3oc(-c4cccnc4)nc3c2)c1, which Potency is on record?
The Potency was inconclusive: 31.6 µM [inhibitor, partial curve, poor fit].

For COCCN(C)C(=O)c1ccc2c(c1)NC(C)(CCCCc1ccccc1)CO2 (centres undefined), which “activity change, negative = inhibition” value is on record?
Its value is inactive: -16.1% [at 86.2 µM].

Which Potency does the source give for CCc1ccc(C2CC(=O)Nc3c2c(C)nn3-c2nc(C)cc(C)n2)cc1 (centres undefined) here?
Its Potency is inconclusive: 28.2 µM [inhibitor, single point].

Which “activity change, negative = inhibition” value does the source give for CCOC(=O)N1CCC(NC(=O)c2ccccc2C(=O)O)CC1 here?
Its value is inactive: 16.9%.

O=C(NC1CCN(c2cc(-c3ccccc3)[nH]n2)CC1)c1ccccc1 was tested. Which “activity change, negative = inhibition” value did it give?
The value was inactive: -5.29%.

Which Potency does the source give for CC(C)Oc1ccc2ccccc2c1CN1C[C@H](O)C[C@H]1C(=O)O here?
The Potency was inconclusive: 25.1 µM [inhibitor, single point].

With COc1cc(-c2nc3ncccn3c2Nc2ccc(C)cc2C)ccc1O as the compound, how does the Potency read?
The Potency was inconclusive: 17.8 µM [inhibitor, single point].

Which “activity change, negative = inhibition” value does the source give for Cc1noc([C@@H]2CN(C(=O)CCc3nc4ccccc4[nH]3)C[C@H]2C(N)=O)n1 here?
The value was inactive: 16.9%.

For Cc1cccc(C)c1OCC(O)Cn1c(C)cc(=O)n2ncnc12 (centres undefined), which “activity change, negative = inhibition” value is on record?
The value was inactive: 2.88%.

Which “activity change, negative = inhibition” value does the source give for CC(=O)N1CCN(C(=O)Cn2ccc3cc(Cl)ccc32)CC1 here?
Its value is inactive: 5%.

For O=C(CSC1=NS(=O)(=O)c2ccccc2N1Cc1ccccc1)Nc1ccc(F)cc1F, which “activity change, negative = inhibition” value is on record?
Its value is inactive: 15.1%.

How did the Potency turn out when COc1cc(OC)cc(C(=O)Nc2ccc3c(c2)N(C2CCCC2)C(=O)c2ccccc2S3)c1 was run?
The Potency was inconclusive: 5.62 µM [inhibitor, partial curve, poor fit].

With N#Cc1cccnc1NCCc1cccc2cccnc12 as the compound, how does the Potency read?
The Potency was inconclusive: 35.5 µM [inhibitor, single point].

How did the “activity change, negative = inhibition” value turn out when COc1ccc(-c2cc(N3CCN(C(=O)c4cccc(C#N)c4)CC3)n[nH]2)cc1 was run?
Its value is inactive: 19.7%.

How did the “activity change, negative = inhibition” value turn out when Cc1ccc(Cn2c(N3CCN(C/C=C/c4ccccc4)CC3)nc3c2c(=O)[nH]c(=O)n3C)cc1 was run?
The value was inactive: 9.39%.

With CC(C)Cc1ccc(-c2cnc(CCC(=O)NC3=NCCS3)o2)cc1 as the compound, how does the “activity change, negative = inhibition” value read?
Its value is inactive: 15.8%.

O=S(=O)(c1ccccc1)c1nnn2c1nc(NCc1ccncc1)c1ccccc12 was tested. Which Potency did it give?
Its Potency is inconclusive: 56.2 µM [inhibitor, partial curve, poor fit].

For Cc1ccc(CCNC(=O)c2cn(C)c3ccc(S(=O)(=O)N4CCCCC4)cc3c2=O)cc1, which activity change, negative = inhibition is on record?
The activity change, negative = inhibition was inconclusive: -31.4% [inhibitor] [at 11.5 µM].

How did the “activity change, negative = inhibition” value turn out when CCc1c(C)c2ccc(OCC(=O)c3ccc(C)cc3)cc2oc1=O was run?
The value was inactive: 2.61%.

Cn1c(=O)c2c(ncn2CC(=O)N2CCC(Cc3nc(C4CCOCC4)no3)CC2)n(C)c1=O was tested. Which Potency did it give?
The Potency was inconclusive: 25.1 µM [inhibitor, single point].

Cc1ccc(C(N)=O)cc1-c1cc(NCc2cccnc2)nc2[nH]ccc12 was tested. Which Potency did it give?
The Potency was inconclusive: 28.2 µM [inhibitor, partial curve, poor fit].

For Cc1ccc(-c2noc(CCC(=O)N3CCc4sccc4C3c3cccs3)n2)cc1 (centres undefined), which “activity change, negative = inhibition” value is on record?
The value was inactive: -3.72%.

With O=C1Nc2ccc(-c3ccccc3)cc2C(=O)N2CCN(C(=O)c3cccc(F)c3)C[C@H]12 as the compound, how does the Potency read?
The Potency was active: 28.2 µM.

How did the Potency turn out when S=C(Nc1cccc2ccccc12)N[C@H]1CO[C@H]2[C@@H]1OC[C@H]2OCc1ccccc1 was run?
The Potency was active: 35.5 µM.

Which “activity change, negative = inhibition” value does the source give for CCOC(=O)C1CCCN(C(=O)C2CCN(S(=O)(=O)c3ccc4c(ccn4CC)c3)CC2)C1 (centres undefined) here?
Its value is inactive: 18.7%.

With Cc1cc(OCC(=O)NCc2ccccn2)c2c(C)cc(=O)oc2c1 as the compound, how does the Potency read?
The Potency was inconclusive: 5.01 µM [inhibitor, full curve, poor fit].

O=C(O)C12CC3CC(C(=O)O)(C1)CC(C(=O)O)(C3)C2 was tested. Which “activity change, negative = inhibition” value did it give?
The value was inactive: 8.4%.

CN1CC(=O)N(C2CCNCC2)Cc2c(NCC3CCCCCC3)ncnc21 was tested. Which Potency did it give?
Its Potency is inconclusive: 56.2 µM [inhibitor, partial curve, poor fit].

For FC(F)(F)c1ccc(CN2CCNc3cc(Nc4cccnc4)ncc3C2)cc1, which Potency is on record?
The Potency was inconclusive: 39.8 µM [inhibitor, partial curve, poor fit].

How did the “activity change, negative = inhibition” value turn out when COCCn1c(C)nnc1-c1cc(-c2cccc(CO)c2)ccn1 was run?
Its value is inactive: -29% [at 86.2 µM].

For CN(C)C[C@@H]1CN(Cc2ccccn2)C[C@H]1NS(=O)(=O)c1cccc(F)c1, which “activity change, negative = inhibition” value is on record?
The value was inactive: -18.1%.

How did the “activity change, negative = inhibition” value turn out when CCc1ccccc1OC(C(=O)O)c1ccccc1 (centres undefined) was run?
The value was inactive: -9.07%.

How did the “activity change, negative = inhibition” value turn out when COc1ccc2cc(C(=O)N3CCN(c4cccc(C)c4C)CC3)c(C)nc2c1 was run?
The value was inactive: -24.6%.

Which Potency does the source give for COc1ccc(-c2cc3ncc(C(=O)c4cc(F)ccc4O)cn3n2)cc1 here?
Its Potency is inconclusive: 22.4 µM [inhibitor, partial curve, poor fit].

For COc1ccc(CNC(=O)c2ccc3c(c2)N(C)C2CCCCN2C3=O)c(OC)c1 (centres undefined), which Potency is on record?
Its Potency is inconclusive: 31.6 µM [inhibitor, partial curve, poor fit].

Which Potency does the source give for COC(=O)CO[C@@H]1CO[C@H]2[C@@H]1OC[C@@H]2n1cc(-c2ccccn2)nn1 here?
The Potency was inconclusive: 25.1 µM [inhibitor, partial curve, poor fit].

CC1=C(c2ccc(C)c(C)c2)S(=O)(=O)N=C1N1CCC(C(=O)NCCc2ccco2)CC1 was tested. Which Potency did it give?
Its Potency is inconclusive: 25.1 µM [inhibitor, partial curve, poor fit].

For CC1=C(C)CC(C(=O)NCc2ccncc2)C(C(=O)O)C1 (centres undefined), which “activity change, negative = inhibition” value is on record?
The value was inactive: 23.6%.
